Some of these results come from one statement about several compounds together.
System: Caco-2/TC7 cells
Assay: Method G: permeability in the Caco-2/TC7 in vitro model
Details: intestinal cell model, relative to CC-1

Row | SMILES | more permeable relative to prior art compound CC-1
1 | N#Cc1ccc(N[C@H]2CC[C@H](OCC(=O)N3CCN(Cc4cc5cc(C(F)(F)F)ccc5o4)CC3)CC2)cc1C(F)(F)F [Compound 306, 4-(4-{2-oxo-2-[4-(5-trifluoromethyl-benzofuran-2-ylmethyl)-piperazin-1-yl]-ethoxy}-cyclohexylamino)-2-trifluoromethyl-benzonitrile] | 200-300%
2 | N#Cc1ccc(N[C@H]2CC[C@H](OCC(=O)N3CCN(Cc4nc5cc(F)ccc5s4)CC3)CC2)cc1C(F)(F)F [Compound 294, 4-[[4-[2-[4-[(5-fluoro-1,3-benzothiazol-2-yl)methyl]piperazin-1-yl]-2-oxo-ethoxy]cyclohexyl]amino]-2-(trifluoromethyl)benzonitrile] | 200-300%
3 | N#Cc1ccc(N[C@H]2CC[C@H](OCC(=O)N3CCN(CC4Cc5cc(C(F)(F)F)ccc5O4)CC3)CC2)cc1C(F)(F)F (stereo partly shown) [Compound 84, 4-([4-[2-oxo-2-(4-[[5-(trifluoromethyl)-2,3-dihydro-1-benzofuran-2-yl]methyl]piperazin-1-yl)ethoxy]cyclohexyl]amino)-2-(trifluoromethyl)benzonitrile] | 100-200%
4 | N#Cc1ccc(N[C@H]2CC[C@H](OCC(=O)N3CCN(Cc4cc5cc(Cl)ccc5o4)CC3)CC2)cc1C(F)(F)F [Compound 274, 2-[(4-[[4-cyano-3-(trifluoromethyl)phenyl]amino]cyclohexyl)-oxy]1-[4-(5-chlorobenzofuran-2-ylmethyl)piperazin-1-yl]ethan-1-one] | 200-300%
5 | N#Cc1ccc(N[C@H]2CC[C@H](OCC(=O)N3CCN(Cc4ccc5cc(C(F)(F)F)ccc5n4)CC3)CC2)cc1C(F)(F)F [Compound 334, 4-(4-{2-oxo-2-[4-(6-trifluoromethyl-quinolin-2-ylmethyl)-piperazin-1-yl]-ethoxy}-cyclohexylamino)-2-trifluoromethyl-benzonitrile] | over 300%
6 | N#Cc1ccc(N[C@H]2CC[C@H](OCC(=O)N3CCN(Cc4nc5cc(C(F)(F)F)ccc5s4)CC3)CC2)cc1C(F)(F)F [Compound 301] | 200-300%
7 | N#Cc1ccc(N[C@H]2CC[C@H](OCC(=O)N3CCN(Cc4ccc5ccc(C(F)(F)F)cc5n4)CC3)CC2)cc1C(F)(F)F [Compound 333, 4-(4-{2-oxo-2-[4-(7-trifluoromethyl-quinolin-2-ylmethyl)-piperazin-1-yl]-ethoxy}-cyclohexylamino)-2-trifluoromethyl-benzonitrile] | 200-300%
8 | N#Cc1ccc(N[C@H]2CC[C@H](OCC(=O)N3CCN(c4cnc5ccccc5c4)CC3)CC2)cc1C(F)(F)F [Compound 335, 4-[[4-[2-oxo-2-[4-(3-quinolyl)piperazin-1-yl]ethoxy]cyclohexyl]amino]-2-(trifluoromethyl)benzonitrile] | over 300%
9 | N#Cc1ccc(N[C@H]2CC[C@H](OCC(=O)N3CCN(Cc4nc5cc(Cl)ccc5s4)CC3)CC2)cc1C(F)(F)F [Compound 292, 4-[[4-[2-[4-[(5-chloro-1,3-benzothiazol-2-yl)methyl]piperazin-1-yl]-2-oxo-ethoxy]cyclohexyl]amino]-2-(trifluoromethyl)benzonitrile] | 200-300%
10 | N#Cc1ccc(N[C@H]2CC[C@H](OCC(=O)N3CCN(CC4Cc5cc(Cl)ccc5O4)CC3)CC2)cc1C(F)(F)F (stereo partly shown) [Compound 82] | 100-200%

Source: patent US9249102B2 (priority 2012, dated 2016)
